Measurements published in PubChem BioAssay AID1240 (Sanford-Burnham Center for Chemical Genomics, 2008).
Out of some 50,000 compounds screened, about 800 (1.6%) showed an effect of 50% or more. The list shows a part of the results.

Each compound was assayed against Bcl-2-like protein 10 (Homo sapiens) (UniProt Q9HD36) (assay: TR3 peptide-Bcl-B binding displacers, biochemical primary FP assay, phenotype converters (AID 1240;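 note: 0% = Bcl-B with tracer peptide and DMSO and 100% = tracer peptide lacking Bcl-B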)). Details: GST-Bcl-B / FITC-TR3 peptide fluorescence polarization; stronger effect = higher value; compound at 3.75 mg/L.
Chain of UniProt Q9HD36 (Q9HD36 whole entry, looked up): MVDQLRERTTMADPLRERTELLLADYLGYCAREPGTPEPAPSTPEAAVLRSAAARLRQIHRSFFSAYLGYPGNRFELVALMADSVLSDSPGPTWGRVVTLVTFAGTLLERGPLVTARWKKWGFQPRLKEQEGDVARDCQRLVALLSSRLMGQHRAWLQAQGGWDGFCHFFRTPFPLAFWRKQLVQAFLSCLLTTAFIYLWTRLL

| SMILES | displacement [%] |
| --- | --- |
| O=C(CSc1nnc(-c2cccs2)n1-c1ccccc1)c1ccc(Cl)cc1 | 0.9 |
| COc1ccc(C/C(O)=C(\C#N)c2nc3ccccc3[nH]2)cc1OC | -2.3 |
| COc1ccc(-c2nc(-c3cccnc3)no2)cc1OC | -11.3 |
| N=c1sc(Cc2cccc3ccccc23)cn1CC(=O)c1ccccc1 | -6.5 |
| COc1ccc(CNC(=O)CN(c2ccc(C)cc2C)S(=O)(=O)c2ccc(C)cc2)cc1 | -2.3 |
| COc1ccccc1NC(=O)C1=C(C)NC(=O)NC1c1ccccc1F (stereo not given) | -12.7 |
| Cc1cccc(N2C(=O)C(=O)/C(=C(\O)c3ccccc3)C2c2cccc(F)c2)c1 (stereo not given) | 0.2 |
| O=C(/C=C/c1ccccc1)NC(=S)Nc1cccc(-c2nc3ncccc3o2)c1 | 0.8 |
| Cc1ccc(/C=C/C(=O)Nc2ccccc2Br)o1 | 14.2 |
| CCc1cc2c(=O)c(-c3nc4ccccc4n3C)c(C)oc2c(CN2CCOCC2)c1O | 5.7 |
| COc1ccc(CCNS(=O)(=O)c2ccc3ccccc3c2)cc1OC | 3.3 |
| CCOc1ccc(C(=O)Nc2ccc(NC(=O)c3ccccc3)cc2)cc1[N+](=O)[O-] | 12.7 |
| N#C/C(=C\c1ccc(Cl)cc1Cl)C(=O)NCC1CCCO1 (stereo not given) | -20.1 |
| COC(=O)C1=C(C)N(c2cc(C)cc(C)c2)/C(=C/c2ccco2)C1=O | 99.6 |
| COCCNC(=O)C(=O)Nc1cccc2ccccc12 | 15.5 |
| COC(=O)c1cc(NC(=O)c2ccc(-c3cccc(Cl)c3C)o2)cc(C(=O)OC)c1 | 7.6 |
| Cc1cccc(N2C(=O)C(=O)/C(=C(\O)c3ccccc3)C2c2ccccc2[N+](=O)[O-])c1 (stereo not given) | 1.6 |
| COc1cc(C(=O)N2CCC(Cc3ccccc3)CC2)cc(OC)c1OC | -6.7 |
| Cc1ccc(-c2cc(C(=O)N/N=C/c3ccco3)[nH]n2)cc1 | -8.1 |
| COc1ccc(CCC(=O)Nc2cc(Cl)ccc2OC)cc1 | -1.8 |
| COc1ccccc1-c1coc2c(CN3CCOCC3)c(O)ccc2c1=O | -10.1 |
| CC(C)OP(C)(=O)CN1CCCC1=O (stereo not given) | 16.8 |
| CC(=O)Oc1ccc(-c2cccc(C(=O)N3CCCCC3)c2)cc1 | 0.1 |
| Cc1c(N=Cc2ccc3c4c(cccc24)CC3)c(=O)n(-c2ccccc2)n1C | 2.1 |
| Cc1cc(/C=C2\NC(=O)NC2=O)c(C)n1-c1ccc(N(C)C)cc1 | 3.4 |
| Cc1ccc(S(=O)(=O)N(C)CCCC(=O)Nc2cccc(C)c2)cc1 | 7.5 |
| CCOc1ccc(Nc2nc(O)c(C3=c4cc(Br)ccc4=NC3=O)s2)cc1 | -5.8 |

| SMILES | displacement [%] |
| --- | --- |
| O=C(N/N=C/c1ccco1)c1cc(C23CC4CC(CC(C4)C2)C3)[nH]n1 | -9.5 |
| CCc1ccc2oc(-c3cccc(NC(=O)c4ccccc4C)c3)nc2c1 | 14 |
| CCOC(=O)C1=C(C)N(CCOC)C(=O)/C1=C\c1ccc(C)cc1 | 44.1 |
| C=CCn1c(SCC(=O)NCCCN2CCOCC2)nc2sc3c(c2c1=O)CCCC3 | 2.5 |
| Cc1ccc(/C=C2\C(=O)NC(=S)N(c3ccc(C)cc3)C2=O)cc1 | 14.6 |
| Cc1cc(C)c(NS(=O)(=O)c2cc([N+](=O)[O-])ccc2Cl)c(C)c1 | 18.6 |
| O=C(Nc1nc2ccc(Cl)cc2s1)c1cccc(F)c1 | 5.1 |
| CCC(C)c1ccc(NC(=O)c2ccc([N+](=O)[O-])cc2)cc1 (stereo not given) | 11.6 |
| COc1ccc(C2CC(C(F)(F)F)n3nc(C(=O)N4CCN(c5ccccc5)CC4)c(Cl)c3N2)cc1OC (stereo not given) | 0.5 |
| Cc1ccccc1C(=O)N1CCN(c2nc3ccc([N+](=O)[O-])cc3s2)CC1 | 161 |
| COc1ccc(NC(=O)c2cncc(Br)c2)c(OC)c1 | 13.7 |
| CCN(CC)c1ccc(N=Cc2c(C)[nH]c3ccccc23)cc1 | -0.1 |
| CC(=O)Nc1cccc(C(=O)/C=C/c2ccc(/C=C/C(=O)c3cccc(NC(C)=O)c3)cc2)c1 | 10.6 |
| CC1=C(C)CC2C(=O)N(c3ccc(C)c([N+](=O)[O-])c3)C(=O)C2C1 (stereo not given) | -8.7 |
| O=C1c2ccc(-c3nc4ccccc4c(=O)o3)cc2C(=O)N1c1ccc(-c2ccc([N+](=O)[O-])cc2)cc1 | -1.3 |
| COc1ccc(Cl)cc1NC(=O)c1cc2nc(-c3ccccc3)cc(C)n2n1 | 7.1 |
| O=C(c1cc(Cl)ccc1Cl)N1CCOCC1 | 8.2 |
| Cc1ccc(C2(c3ccc(C)cc3)CC2C(=O)Nc2cc([N+](=O)[O-])ccc2C)cc1 (stereo not given) | 9.4 |
| O=C(NCCCO)C(=O)NCc1ccccc1Cl | 7.3 |
| O=C(O)CCCCCN1C(=O)C(=O)/C(=C(/O)c2ccccc2)C1c1cccc([N+](=O)[O-])c1 (stereo not given) | 0 |
| O=C(O)CCC(=O)Nc1ccc2nn(-c3ccccc3)nc2c1 | 3.6 |
| Cc1cc(-c2ccccc2)nc2cc(C(=O)Nc3ccc(Cl)cc3)nn12 | 15.4 |
| O=C(Nc1ccc(F)cc1)Nc1ccccc1C(=O)OCc1ccccc1F | -9.8 |
| CCOc1ccccc1C=Nc1cc(Cl)cc(Cl)c1 | -5.3 |
| Cc1ccc(NCC(=O)N/N=C\c2cc(Cl)cc(Br)c2O)cc1 | 3 |
| O=C(Nc1cccc(O)c1)/C(=C\c1cccs1)NC(=O)c1ccccc1 | 12.1 |
| Cc1cc(C)n(-c2cc(-c3ccccc3)nc(-c3ccc(Br)cc3)n2)n1 | -1.2 |

| SMILES | displacement [%] |
| --- | --- |
| CC1(C)CC(=O)c2sc(NC(=O)CSc3nc4ccccc4o3)nc2C1 | -10.6 |
| CCCCOC(=O)C(NC(=O)c1ccccc1)=C(C)C | -2.3 |
| CCCC(NC(=O)c1ccccc1)C(=O)OCC(=O)Nc1sc2c(c1C(=O)OCC)CCCC2 (stereo not given) | 3.3 |
| CC(=O)Nc1ccc(-c2ccco2)cc1 | 4.5 |
| CC(=O)Nc1ccc(NC(=O)CSc2ccccn2)cc1 | -2.6 |
| COc1cc(/C=C2\SC(N)=NC2=O)cc(Br)c1OC | -25.9 |
| Cc1ccc(C(C)C)c(OCCNC(=O)CCC2CCCC2)c1 | -6.8 |
| CN(C)CCCNC(=O)COc1ccc(Br)cc1 | -3.8 |
| COc1ccc(C(=O)N2c3ccccc3N(Cc3ccccc3)C(=O)C2(C)C)cc1 | 5.8 |
| Oc1cccc(/C=N\N2CCN(c3ccccc3)CC2)c1 | 0.4 |
| CCOc1ccc(S(=O)(=O)N(CC(=O)Nc2ccccc2OCC)c2ccc(C)cc2)cc1 | 4.5 |
| CCOC(=O)c1sc(NC(=O)c2cc3n(n2)C(C(F)(F)F)CC(c2ccc4c(c2)OCO4)N3)c(C(=O)OCC)c1C (stereo not given) | 11.8 |
| CCOc1cc(C=O)ccc1OCCOc1ccc(C)cc1 | -8.8 |
| CCOC(=O)C1=C(O)/C(=C/c2cc(OC)c(OC)c(OC)c2)SC1=Nc1ccc([N+](=O)[O-])cc1 | -5 |
| Cc1ccc(S(=O)(=O)N2CCN(c3ccccc3)CC2)cc1[N+](=O)[O-] | -14.7 |
| COc1ccc(OC)c(C(=O)c2ccc(C(=O)NCc3ccccc3)cc2)c1 | -5.3 |
| CCOC(=O)C1=C(O)/C(=C/c2ccc(C)o2)SC1=Nc1ccc([N+](=O)[O-])cc1 | -8.2 |
| COc1ccc(CNC23CC4CC(CC(C4)C2)C3)cc1Br | 11.3 |
| CCCc1cc(C(=O)OC)c(NC(=O)/C=C/C(=O)O)s1 | 10.4 |
| COc1ccc(CN2CCN(Cc3cc(Br)ccc3O)CC2)cc1OC | 1.4 |
| COc1ccc(C(=O)Nc2ccc(S(=O)(=O)Nc3cc(C)on3)cc2)c(OC)c1 | 5.7 |
| C=CCNC(=O)C(=O)Nc1ccccc1OCC | 2.8 |
| COc1cc(OC)c(C2C(C(=O)OCC3CCCO3)=C(C)NC3=C2C(=O)CCC3)cc1OC (stereo not given) | -0.6 |
| CCCCOC(=O)c1cccc(NC(=O)COc2ccccc2Cl)c1 | 1 |
| CS(=O)(=O)N(CC(=O)N1CCCC1)c1cccc(C(F)(F)F)c1 | 11.3 |
| Cc1ccc2nsnc2c1NC(=O)c1ccc(-c2cccc(Cl)c2)o1 | 1.4 |
| COc1ccc(/C=C2/C(=O)NN(c3ccc(I)cc3)C2=O)cc1 | 0.5 |

| SMILES | displacement [%] |
| --- | --- |
| O=C1c2[nH]nc(-c3ccccc3)c2C(c2ccc([N+](=O)[O-])cc2)N1c1ccccc1 (stereo not given) | 3.4 |
| C/C(=N\NC(=O)c1cc(C2CC2)[nH]n1)c1cccc([N+](=O)[O-])c1 | -8.8 |
| CC1=C(C(=O)OCc2ccc(C)cc2)C(c2cccc(O)c2)NC(=O)N1 (stereo not given) | 11.4 |
| O=C1OC(c2ccccc2)=N/C1=C1/c2ccccc2-c2ccc([N+](=O)[O-])cc21 | -6.7 |
| COCCNc1ncnc2ccc(Br)cc12 | 1.9 |
| O=C(COc1ccccc1)Nc1ccc(O)c(-c2nc3ccccc3o2)c1 | 15.3 |
| N/C(=N\S(=O)(=O)c1ccccc1)c1cccc(Cl)c1 | -6.2 |
| COc1ccc(Nc2nc(NCc3ccco3)nc(N/N=C/c3cc4c(cc3[N+](=O)[O-])OCO4)n2)cc1 | 7.7 |
| Cc1ccc(NC(=O)/C=C/c2ccc(Cl)cc2)c([N+](=O)[O-])c1 | -1.3 |
| CC(=O)c1cc2c(N)c(C(=O)c3ccc(Br)cc3)sc2nc1C | 10.1 |
| COc1ccc(Cl)cc1NC(=O)c1c(-c2ccccc2)noc1C | -4.4 |
| CCC1CCc2c(sc(NC(=O)C3C4CCC(C4)C3C(=O)O)c2C(N)=O)C1 (stereo not given) | 5.9 |
| C=CCOc1ccc(C(=O)NC(C)C2COc3ccccc3O2)cc1 (stereo not given) | 11.1 |
| CC1(C)CC(=O)C(C(O)c2cccc([N+](=O)[O-])c2)C(C)(C)N1 (stereo not given) | -2.2 |
| O=C(Nc1ccc2c(c1)OCO2)c1ccc(Cl)cc1 | -1 |
| COC(=O)C1=C(C(=O)OC)SC2(S1)C(c1ccccc1)=CSC(C(=O)OC)=C2C(=O)OC | -13.3 |
| O=[N+]([O-])c1cccc(S(=O)(=O)NCc2ccc(Cl)cc2)c1 | 3.2 |
| CCC1(c2ccccc2)OC(=O)C2C3CCCCC3=C3CCCCC3C21 (stereo not given) | 2.3 |
| O=C(/C=C/c1ccc(OCc2ccccc2)cc1)c1ccc(F)cc1 | -5.1 |
| CCOc1ccccc1C(=O)Nc1nc(-c2ccc(Cl)cc2)cs1 | 5.7 |
| CCOc1cc(/C=C2\C(=O)NC(=O)N(c3ccc(C)cc3)C2=O)ccc1O | 11.9 |
| Cc1cccc(C)c1NC(=O)c1ccc(CN2CCOCC2)cc1 | -7.4 |
| O=C(COc1ccccc1)Nc1ccccc1I | 6.2 |
| O=C1NC(=O)N(c2ccc(Cl)cc2)C(=O)/C1=C/c1ccc(I)o1 | 19.1 |
